Among all 48,000 compounds or so, about 550 (1.1%) were called active. Not shown: some 4% with an inconclusive outcome. Cut-off read from the data, not from the text of the source: active = potency below about 15 µM; inconclusive = mostly about 16 µM to 33 µM; inactive = weaker than that. The list shows a part of the results.
Potency is the fitted concentration of half-maximal effect.

The target in this assay is Lysosomal acid glucosylceramidase (Homo sapiens) (UniProt P04062). Kind of assay: Glucocerebrosidase.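 Note: the screen sought inhibitors.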 Conditions: purified enzyme, resorufin glucoside fluorescence (screen aimed at inhibitors), 20 min. The method in brief: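 Compounds titrated against 0.2 nM normal enzyme, 30 uM resorufin beta-D-glucopyranoside substrate, citrate/phosphate buffer with taurocholate and tween-20, pH 5.9. Reaction ran 20 min at room temperature; fluorescence (Ex 548/Em 600) gave AC50.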
UniProt P04062, sequence (P04062 whole entry, looked up): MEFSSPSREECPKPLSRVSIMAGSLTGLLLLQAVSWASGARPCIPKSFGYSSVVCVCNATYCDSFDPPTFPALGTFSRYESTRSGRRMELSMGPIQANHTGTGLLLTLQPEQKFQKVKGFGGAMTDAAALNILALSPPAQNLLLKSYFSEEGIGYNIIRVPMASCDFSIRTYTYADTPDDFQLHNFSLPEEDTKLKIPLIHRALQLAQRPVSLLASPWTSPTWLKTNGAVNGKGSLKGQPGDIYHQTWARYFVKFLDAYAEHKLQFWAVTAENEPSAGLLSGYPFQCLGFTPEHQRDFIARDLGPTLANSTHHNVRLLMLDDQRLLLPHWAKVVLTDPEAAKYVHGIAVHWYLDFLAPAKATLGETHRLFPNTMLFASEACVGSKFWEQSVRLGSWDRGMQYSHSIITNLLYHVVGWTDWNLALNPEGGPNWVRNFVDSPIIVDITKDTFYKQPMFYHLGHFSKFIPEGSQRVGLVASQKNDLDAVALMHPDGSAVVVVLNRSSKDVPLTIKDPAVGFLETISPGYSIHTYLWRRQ
Regarding `CCOC(=O)N1CCN(S(=O)(=O)c2ccc3[nH]c(=O)sc3c2)CC1`, the Potency is inactive: > 76.9 µM.

For `Cc1ccc(OC(=O)c2cccc(C(=O)Oc3ccc(C)cn3)n2)nc1`, the Potency is inactive: > 76.9 µM.

Turning to `O=c1cc(Cn2nnc(-c3ccc(Cl)cc3)n2)nc2sccn12`, the Potency was inactive: > 76.9 µM.

As for `COC(=O)c1cc(OC)c(OC)cc1NC(=O)CN1CCOCC1`, the Potency was inactive: > 76.9 µM.

Consider `O=C(CCCCCC(=O)N(CCO)CCO)N(CCO)CCO`, for which the Potency was inactive: > 76.9 µM.

As to `COc1ccc(OC)c(NC(=O)CNC(=O)Cn2cnc3ccccc3c2=O)c1`, the Potency was inactive: > 76.9 µM.

`CCCCn1c(SCC(=O)N2CCOCC2)nnc1-c1cccs1`: the Potency was inactive: > 76.9 µM.

With `COc1cccc(N2C(=O)C3C(C2=O)C2C=CC3C23CC3)c1` (stereo not drawn), the Potency is inactive: > 76.9 µM.

Consider `O=C(COc1ncnc2ccccc12)N1CCOCC1`, for which the Potency was inactive: > 76.9 µM.

On to `O=C(/C=N/O)NCCN1CCCCC1`, for which the Potency is inactive: > 76.9 µM.

On to `O=C(NC1(C(F)(F)F)NC(=O)N(Cc2ccco2)C1=O)c1cccs1` (stereo not drawn), for which the Potency was inactive: > 76.9 µM.

For the compound `Nc1ncnc2c1ncn2CCNCCc1ccccc1`, the Potency is inactive: > 76.9 µM.

Take `Cc1ccc(OC(=O)NC2CCS(=O)(=O)C2)cc1C` (stereo not drawn): the Potency is inactive: > 76.9 µM.

Regarding `COc1ccc(-n2c(SCC(=O)c3c(N)n(C)c(=O)n(C)c3=O)nc3ccccc32)cc1`, the Potency was inactive: > 76.9 µM.

`COc1cccc(NC(=O)[C@@H]2CCCN2C(=O)C2CCN(S(=O)(=O)c3ccc(C)cc3)CC2)c1`: the Potency is inactive: > 76.9 µM.

On to `O=C(CSc1nnc(-c2ccccc2)o1)N1CCOCC1`, for which the Potency is inactive: > 76.9 µM.

Turning to `Cc1ccccc1OCC(=O)N(Cc1ccc(N(C)C)cc1)C1CCS(=O)(=O)C1` (stereo not drawn), the Potency is inactive: > 76.9 µM.

On to `COc1cccc(-c2noc(CCC(=O)NC3CCCCC3)n2)c1`, for which the Potency was inactive: > 76.9 µM.

In the case of `CCCC(=O)Nc1ccccc1-c1nnn(CC(=O)Nc2ccc(OC)cc2)n1`, the Potency was inactive: > 76.9 µM.

As for `Cc1ccc(CCN2CC(C(=O)NCCN3CCCCCC3)CC2=O)cc1` (stereo not drawn), the Potency was inactive: > 76.9 µM.

As for `COc1ccc(-c2cc(C(F)F)n3ncc(C(=O)N4CCSCC4)c3n2)cc1`, the Potency was inactive: > 76.9 µM.

As for `COc1ccc(C2N(c3ccccn3)C(=O)C3CCCN32)c(OC)c1` (stereo not drawn), the Potency was inactive: > 76.9 µM.

With `Cc1cnc(C(=O)OCC(=O)N2CCN(C(=O)c3ccco3)CC2)cn1`, the Potency is inactive: > 76.9 µM.

Turning to `CCc1c(C)nc2ncnn2c1Nc1ccc(C#N)c(Cl)c1`, the Potency is inactive: > 76.9 µM.

For `Cc1c(C(=O)NC(C)C)oc2c1-c1[nH]ncc1CC2`, the Potency was inactive: > 76.9 µM.

As to `Cc1cccc(Nc2ncc3c(n2)CC(C)CC3=O)c1` (stereo not drawn), the Potency is inactive: > 76.9 µM.

In the case of `COc1ccc(CCNC(=O)C2=COCCO2)cc1`, the Potency is inactive: > 76.9 µM.

With `CCCCNC(=O)c1ccccc1NC(=O)c1ccccc1N(C)S(C)(=O)=O`, the Potency is inactive: > 76.9 µM.

As to `CCOc1ccc(NC(=O)CSc2nnnn2CC(=O)O)cc1`, the Potency is inactive: > 76.9 µM.

Turning to `COc1ccc(CC(=O)N2CCNC2=O)cc1`, the Potency is inactive: > 76.9 µM.

`O=C(COc1cc(Cl)c(Cl)cc1Cl)Nn1cnnc1`: the Potency is inactive: > 76.9 µM.

On to `Cc1ccc(S(=O)(=O)N2CCCC2C(=O)Nc2cc(C)on2)cc1` (stereo not drawn), for which the Potency was inactive: > 76.9 µM.

In the case of `Cc1ccc(-n2nc(C)c3c2OC(N)=C(C#N)C3c2ccncc2)cc1` (stereo not drawn), the Potency is inactive: > 76.9 µM.

In the case of `C/C=C(\C)c1nnc(NC(=O)C(C)C)s1`, the Potency is inactive: > 76.9 µM.

For the compound `Cn1c(=O)c2c(nc(NCCCO)n2CCc2ccccc2)n(C)c1=O`, the Potency was inactive: > 76.9 µM.

Take `CCC(C)[C@H](NC(=O)Nc1ccc(C(C)=O)cc1)C(=O)OC` (stereo partly drawn): the Potency is inactive: > 76.9 µM.

`Cc1ccc(OCCNS(=O)(=O)c2cccs2)cc1`: the Potency was inactive: > 76.9 µM.

Regarding `Cc1cc2oc(C(=O)Nc3c(C)n(C)n(-c4ccccc4)c3=O)c(C)c2cc1C`, the Potency is inactive: > 76.9 µM.

On to `O=S(=O)(c1cccc(C(F)(F)F)c1)N1CCN(c2nnnn2-c2ccccc2)CC1`, for which the Potency was inactive: > 76.9 µM.

For `COc1ccccc1NC(=O)NC(N)=O`, the Potency is inactive: > 76.9 µM.

For `CCCOc1ccc(N2C(=O)CC(N(O)c3ccccc3)C2=O)cc1` (stereo not drawn), the Potency was inactive: > 76.9 µM.

`CC(C)Sc1ncnc2c1oc1ccccc12`: the Potency is inactive: > 76.9 µM.

Turning to `COCCOC(=O)C1=C(C)N=C2SCCC(=O)N2C1c1cccc(Br)c1` (stereo not drawn), the Potency is inactive: > 76.9 µM.

For the compound `Cc1ccc(C2C(C#N)=C(N)SC(N)=C2C#N)cc1`, the Potency is inactive: > 76.9 µM.

For `COC(=O)CSc1nnc(C2COc3ccccc3O2)n1-c1ccccc1` (stereo not drawn), the Potency was inactive: > 76.9 µM.

On to `O=C(CN1CCN(c2ccc(F)cc2)CC1)Nc1nnc(-c2ccccc2)s1`, for which the Potency was inactive: > 76.9 µM.

On to `COCCCn1c(-c2ccsc2)nc2c1c(=O)[nH]c(=O)n2Cc1ccccc1`, for which the Potency is inactive: > 76.9 µM.

`Cc1cc(=O)n2nc(N3CCC(C(=O)N4CCN(C)CC4)CC3)sc2n1`: the Potency is inactive: > 76.9 µM.

Regarding `Cc1cccc(NC(=O)c2cc(-c3ccco3)nc3ccccc23)n1`, the Potency is inactive: > 76.9 µM.

As for `Cc1cc(C)nc(SC2CCCCC2O)n1` (stereo not drawn), the Potency is inactive: > 76.9 µM.

As for `O=c1c2ccccc2c(/C=N/n2cnnc2)c(O)n1-c1ccccc1`, the Potency was inactive: > 76.9 µM.

`COc1cccc(C(c2nnnn2C(C)(C)C)N2CCN(C3CCCCC3)CC2)c1OC` (stereo not drawn): the Potency is inactive: > 76.9 µM.

As for `COCCN1Cc2cccc(C(=O)Nc3cccnc3)c2C1=O`, the Potency is inactive: > 76.9 µM.

`O=S(=O)(c1ccc(Nc2ccc3c(c2)OCO3)nc1)N1CCOCC1`: the Potency was inactive: > 76.9 µM.

Consider `O=C(CN1C(=O)NC2(CCCc3ccccc32)C1=O)N1CCN(C(=O)c2ccco2)CC1` (stereo not drawn), for which the Potency was inactive: > 76.9 µM.

Consider `COc1ccc(NC(=O)CSc2nnc(CN3CCOCC3)n2-c2ccccc2)cc1Cl`, for which the Potency was inactive: > 76.9 µM.

As for `CSCCC(Nc1nc2ccccc2s1)C(=O)O` (stereo not drawn), the Potency was inactive: > 76.9 µM.

As to `CCc1nc(C)c(-c2ccccc2)c(=O)[nH]1`, the Potency is inactive: > 76.9 µM.

`CC1CCCN(CC(O)COc2ccc(Cl)cc2)C1` (stereo not drawn): the Potency was inactive: > 76.9 µM.

As to `O=C(O)CNC1=NCCCCC1`, the Potency is inactive: > 76.9 µM.

With `CC(=O)NCC(=O)N(Cc1ccco1)C1(C(=O)NC2CCCCC2)CCCCC1`, the Potency is inactive: > 76.9 µM.

In the case of `CCOC(=O)c1ccc(CNC(=O)C(Cc2c[nH]c3ccccc23)NC(C)=O)o1` (stereo not drawn), the Potency was inactive: > 76.9 µM.

Regarding `CC(NC(=O)Cc1cccs1)C(c1cccs1)N1CCOCC1` (stereo not drawn), the Potency was inactive: > 76.9 µM.

Consider `COc1ccc2[nH]c(=O)c(CN(Cc3cccs3)Cc3nnnn3C(C)(C)C)cc2c1`, for which the Potency result is “inactive”.

In the case of `CCCn1c(SCC(=O)N2CCCc3ccccc32)nnc1-c1ccco1`, the Potency was inactive: > 76.9 µM.

Consider `CCOc1cc(-c2nc(-c3ccc(C)nc3OCC)no2)cc(OCC)c1OCC`, for which the Potency is inactive: > 76.9 µM.

With `CCN(CC)C(=O)CN1CCN(c2ncccn2)CC1`, the Potency is inactive: > 76.9 µM.

For `COc1ccc(-c2[nH]nc3c2C(c2ccncc2)C(C#N)=C(N)O3)cc1` (stereo not drawn), the Potency was inactive: > 76.9 µM.

Take `CCN(CC)CCSc1nc(O)c(-c2ccccc2)c(=O)[nH]1`: the Potency was inactive: > 76.9 µM.

With `Cc1nnc(NC2=NCCCCC2)o1`, the Potency was inactive: > 76.9 µM.

With `COc1ccccc1Nc1nc(N)nc(CSc2nncn2C)n1`, the Potency is inactive: > 76.9 µM.

As to `Cc1ccc(N(Cc2cc(=O)[nH]c3ccccc23)C(=O)c2ccco2)cc1`, the Potency was inactive: > 76.9 µM.

As to `C=C(C)c1cccc(C(C)(C)NC(=O)Nn2cnnc2)c1`, the Potency is inactive: > 76.9 µM.

Turning to `Cc1noc(C)c1COC(=O)CN(C)S(=O)(=O)c1ccc(Cl)cc1`, the Potency is inactive: > 76.9 µM.

Take `COc1ccc(-c2nnnn2CCc2ccccc2)cc1`: the Potency is inactive: > 76.9 µM.

Take `COc1ccccc1CNC(=O)CCCNS(=O)(=O)c1cccc2nsnc12`: the Potency was inactive: > 76.9 µM.

In the case of `COc1ccc(S(=O)(=O)N(CCc2ccccc2)CC(=O)NCCCO)cc1`, the Potency is inactive: > 76.9 µM.

Regarding `CC(C(=O)N1CCOCC1)(c1ccccc1)c1ccccc1`, the Potency is inactive: > 76.9 µM.

Consider `CCOC(=O)C1=CN(C)C=C(C(=O)OCC)C1c1ccsc1`, for which the Potency is inactive: > 76.9 µM.

On to `CSc1nc2c(c(=O)n1Cc1ccccc1)SC(C)C2` (stereo not drawn), for which the Potency is inactive: > 76.9 µM.

On to `COc1ccc(NC(=O)CSc2nc(NS(=O)(=O)c3ccccc3)cc(=O)[nH]2)cc1`, for which the Potency was inactive: > 76.9 µM.

For the compound `COC(=O)c1[nH]c2ccccc2c1NC(=O)CN1CCN(C(=O)c2ccco2)CC1`, the Potency was inactive: > 76.9 µM.

Regarding `COc1cc(CNC2CCCCCC2)cc(OC)c1OC`, the Potency is inactive: > 76.9 µM.

On to `COC(=O)c1nc(-c2ccc(C)cc2)oc1N(C)C`, for which the Potency is inactive: > 76.9 µM.

In the case of `c1ccc(Cc2nnc(-c3ccccc3)o2)cc1`, the Potency was inactive: > 76.9 µM.

Regarding `CCCC(=O)Nc1cc(-c2nnc(OC)c3ccccc23)ccc1N1CCOCC1`, the Potency was inactive: > 76.9 µM.

With `Cc1cc2cc(CNC(=O)Nc3ccccc3)ccc2n1C`, the Potency is inactive: > 76.9 µM.

`CCOC(=O)C1=C(CSc2nncn2C)NC(=O)NC1c1cc(OCC)ccc1OCC` (stereo not drawn): the Potency is inactive: > 76.9 µM.

For `Cc1ccc(-n2nnnc2SC(C)C(=O)Nc2ccc(Cl)cn2)cc1` (stereo not drawn), the Potency was inactive: > 76.9 µM.

Take `C=CCN1C(=O)C(O)(CC(=O)c2ccccc2)c2ccccc21` (stereo not drawn): the Potency is inactive: > 76.9 µM.

On to `Nc1ccc2c(c1)C(=O)N(CC1CCCO1)C2=O` (stereo not drawn), for which the Potency is inactive: > 76.9 µM.

As to `COc1ccc(S(=O)(=O)N2CCn3c2nc2ccccc23)cc1`, the Potency is inactive: > 76.9 µM.

Take `CC(=O)Nc1cccc(NC(=O)CSc2nnc(Cc3cccn3C)n2-c2ccc(F)cc2)c1`: the Potency was inactive: > 76.9 µM.

Values taken from PubChem BioAssay AID360 (National Center for Advancing Translational Sciences (NCATS), 2006).
